Measurements taken from article PMC8894463.
Changes are numbered by the printed parent chain. Results are given in words; binding and its absence hold for the method and conditions named. Binding seen in cells or lysates may run through a third protein. Some results given as binding are weak or reduced against the parent protein; the word gives no strength. For some assays here: Sequences can lack the tags named with a protein. Values belong to the binder of their own block, whether it stands above or below them.

Columns and labels:
[1] = target: T1, HA-tagged TRIM45-C29A (catalytically inactive mutant) (UniProt Q9H8W5); experiment: co-IP; HEK293T cells transfected with Flag-TAB2 and HA-tagged wild-type TRIM45 or TRIM45-C29A; IP with anti-HA beads, then immunoblot (Fig. 5c)
T1 sequence: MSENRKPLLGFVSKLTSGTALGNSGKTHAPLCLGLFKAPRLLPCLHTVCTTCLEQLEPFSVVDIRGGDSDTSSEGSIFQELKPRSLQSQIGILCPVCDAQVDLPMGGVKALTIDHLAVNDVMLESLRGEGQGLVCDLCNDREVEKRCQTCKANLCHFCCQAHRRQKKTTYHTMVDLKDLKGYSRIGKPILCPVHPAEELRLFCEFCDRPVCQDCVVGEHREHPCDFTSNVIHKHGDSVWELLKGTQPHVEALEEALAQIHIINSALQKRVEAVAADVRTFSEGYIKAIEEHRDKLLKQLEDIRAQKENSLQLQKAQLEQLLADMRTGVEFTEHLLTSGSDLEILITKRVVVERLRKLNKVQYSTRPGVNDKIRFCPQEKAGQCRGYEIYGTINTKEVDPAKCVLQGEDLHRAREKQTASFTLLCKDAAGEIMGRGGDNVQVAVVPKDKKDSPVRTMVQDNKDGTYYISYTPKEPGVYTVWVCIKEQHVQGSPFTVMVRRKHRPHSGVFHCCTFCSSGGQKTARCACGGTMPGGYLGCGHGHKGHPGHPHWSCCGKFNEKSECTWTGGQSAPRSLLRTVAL

[2] = target: T2, HA-tagged wild-type TRIM45 (tripartite motif-containing 45) (UniProt Q9H8W5); experiment: co-IP; HEK293T cells co-transfected with HA-TRIM45 and Flag-tagged partners, or with TAB2 or TRIM45 deletion mutants and the tagged partner (Fig. 3b, f, g); which protein was precipitated not given
T2 sequence: T1 sequence with A29C

[3] = target: T3, TRIM45 (endogenous, primary cultured mouse microglia) (mouse (endogenous in primary microglia)) (UniProt Q6PFY8); experiment: co-IP; primary cultured mouse microglia, endogenous proteins, with or without OGD/R (Fig. 3c)
T3 sequence: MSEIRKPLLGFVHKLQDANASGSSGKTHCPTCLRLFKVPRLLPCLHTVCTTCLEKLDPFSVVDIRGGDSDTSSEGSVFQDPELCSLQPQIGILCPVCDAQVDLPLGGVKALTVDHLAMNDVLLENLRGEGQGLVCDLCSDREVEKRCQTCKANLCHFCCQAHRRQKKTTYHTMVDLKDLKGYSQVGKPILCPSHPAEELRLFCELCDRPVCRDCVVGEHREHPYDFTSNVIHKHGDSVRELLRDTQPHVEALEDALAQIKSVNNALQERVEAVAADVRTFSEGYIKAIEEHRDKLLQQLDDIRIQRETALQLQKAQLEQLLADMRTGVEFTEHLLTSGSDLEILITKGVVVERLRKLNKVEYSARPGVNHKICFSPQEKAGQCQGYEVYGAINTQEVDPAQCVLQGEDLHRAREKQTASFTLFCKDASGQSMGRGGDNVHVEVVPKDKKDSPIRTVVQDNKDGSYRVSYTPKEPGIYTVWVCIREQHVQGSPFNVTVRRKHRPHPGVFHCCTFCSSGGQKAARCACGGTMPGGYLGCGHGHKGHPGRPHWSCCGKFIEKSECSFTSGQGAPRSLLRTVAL

[4] = target: T4, Myc-tagged TAB2 (UniProt Q9NYJ8); experiment: co-IP; HEK293T cells transfected with Myc-TAB2, Flag-TAK1 and HA-tagged wild-type TRIM45 or TRIM45-C29A; IP with anti-Myc beads, then immunoblot (Fig. 5e)
T4 sequence: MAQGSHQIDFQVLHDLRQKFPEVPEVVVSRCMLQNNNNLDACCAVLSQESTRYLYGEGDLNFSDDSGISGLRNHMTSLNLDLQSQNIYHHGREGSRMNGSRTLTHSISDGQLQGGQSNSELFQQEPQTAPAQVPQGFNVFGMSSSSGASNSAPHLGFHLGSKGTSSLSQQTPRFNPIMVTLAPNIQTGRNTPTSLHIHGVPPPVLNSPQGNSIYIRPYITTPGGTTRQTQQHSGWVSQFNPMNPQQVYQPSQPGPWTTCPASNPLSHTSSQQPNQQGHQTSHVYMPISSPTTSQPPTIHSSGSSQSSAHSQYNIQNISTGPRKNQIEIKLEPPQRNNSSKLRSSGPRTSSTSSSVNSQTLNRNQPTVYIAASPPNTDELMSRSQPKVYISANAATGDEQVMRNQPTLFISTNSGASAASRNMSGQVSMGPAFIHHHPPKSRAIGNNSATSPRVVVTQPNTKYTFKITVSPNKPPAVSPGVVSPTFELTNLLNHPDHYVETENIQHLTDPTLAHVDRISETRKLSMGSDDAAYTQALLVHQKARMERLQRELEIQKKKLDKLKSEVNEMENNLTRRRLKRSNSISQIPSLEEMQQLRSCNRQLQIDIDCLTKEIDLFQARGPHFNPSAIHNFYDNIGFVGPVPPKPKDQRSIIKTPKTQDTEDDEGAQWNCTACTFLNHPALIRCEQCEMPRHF

binding [1]: no binding
binding [2]: binds
B1: Flag-tagged TAB2 (protein, UniProt Q9NYJ8 1-693)
chain: T4 sequence

binding [3]: binds
B2: TAB2 (endogenous, primary cultured mouse microglia) (protein, UniProt Q99K90 1-693)
chain: MAQGSHQIDFQVLHDLRQKFPEVPEVVVSRCMLQNNNNLDACCAVLSQESTRYLYGEGDLNFSDESGISGLRNHMTSLNLDLQSQNVYHHGREGSRVNGSRTLTHSVSDGQLHGGQSNNELFQQEPQTAPAQVPQGFNVFGMPSTSGASNSTPHLGFHLGSKGTSNLSQQTPRFNPIMVTLAPNIQTGRSTPTSLHIHGVPPPVLNSPQGNSIYIRPYITTPSGTARQTQQHSGWVSQFNPMNPQQAYQPSQPGPWTTYPASNPLPHTSTQQPNQQGHQTSHVYMPISSPTTPQPPTIHSSGSSQSSAHSQYNIQNISTGPRKNQIEIKLEPPQRNSSSKLRSSGPRTASTSSLVNSQTLNRNQPTVYIAASPPNTDEMISRSQPKVYISANATAGDEQGMRNQPTLFISTNSGPSAASRNMSGQVSMGPAFIHHHPPKSRVLGGNSATSPRVVVTQPNTKYTFKITVSPNKPPAVSPGVVSPTFELTNLLNHPDHYVETENIQHLTDPALAHVDRISEARKLSMGSDDAAYTQALLVHQKARMERLQRELEMQKKKLDKLKSEVNEMENNLTRRRLKRSNSISQIPSLEEMQQLRSCNRQLQIDIDCLTKEIDLFQARGPHFNPSAIHNFYDNIGFVGPVPPKPKDQRSTIKAPKTQDAEDEEGAQWNCTACTFLNHPALIRCEQCEMPRHF

binding [4]: binds
binding [2]: no binding
B3: Flag-tagged TAK1 (enzyme, UniProt O43318 1-606)
chain: MSTASAASSSSSSSAGEMIEAPSQVLNFEEIDYKEIEVEEVVGRGAFGVVCKAKWRAKDVAIKQIESESERKAFIVELRQLSRVNHPNIVKLYGACLNPVCLVMEYAEGGSLYNVLHGAEPLPYYTAAHAMSWCLQCSQGVAYLHSMQPKALIHRDLKPPNLLLVAGGTVLKICDFGTACDIQTHMTNNKGSAAWMAPEVFEGSNYSEKCDVFSWGIILWEVITRRKPFDEIGGPAFRIMWAVHNGTRPPLIKNLPKPIESLMTRCWSKDPSQRPSMEEIVKIMTHLMRYFPGADEPLQYPCQYSDEGQSNSATSTGSFMDIASTNTSNKSDTNMEQVPATNDTIKRLESKLLKNQAKQQSESGRLSLGASRGSSVESLPPTSEGKRMSADMSEIEARIAATTAYSKPKRGHRKTASFGNILDVPEIVISGNGQPRRRSIQDLTVTGTEPGQVSSRSSSPSVRMITTSGPTSEKPTRSHPWTPDDSTDTNGSDNSIPMAYLTLDHQLQPLAPCPNSKESMAVFEQHCKMAQEYMKVQTEIALLLQRKQELVAELDQDEKDQQNTSRLVQEHKKLLDENKSLSTYYQQCKKQLEVIRSQQQKRQGTS
